This passage reports growth results from PubChem BioAssay (NCI).

The test system of experiment [1] is M14 melanoma. Description: NCI-60 one-dose screen, 48 h (100 = growth as untreated, 0 = no growth, -100 = all killed). The following applies: 25 µM.
For experiment [2], the system named is HCT-15 colon. The experiment is described as above. The following applies: 0.25 µM.

The source holds several records for some structures; these can differ, active in one and inactive in another.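 Plates (96-well) were seeded with cells, treated with compound at one concentration, and incubated for 48 hours before percent growth was determined.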 Some entries of the source have several records that differ or are many. The list is limited to them. Rule for the calls: active = growth percent below 10; inactive = the rest. The source may hold further records. This drug was run again and again over the years, at the concentration stated with the values; one value stands for one run. Brackets with × stand for listed records that agree.

For the molecule `COc1cccc2c1C(=O)c1c(O)c3c(c(O)c1C2=O)C[C@@](O)(C(=O)CO)C[C@@H]3OC1CC(N)C(O)C(C)O1` (stereo not given in full), the growth result in experiment [1] (runs of 1992) is “active: -100 (23×), -91.6, -99.8 (4×), -99.6, -99 (2×), -96 (2×), -98.6, -85.8, -93.9 (2×), -63.3, -98.3 (3×), -60.4, -93.6, -91.9, -98 (2×), -81, -94.5, -90.4 (2×), -95.4 (2×), -85.2, -96.8, -67.7, -80, -96.2, -75, -97.4, -92.7, -97.5 (2×), -98.7 (3×), -93.4 (2×), -93.2, -89.8, -80.7, -68.3, -69.4, -80.9, -93.8, -89.3, -95, -95.7, -96.5, -98.5 (2×), -94.4, -84.9, -84, -97.3, -93.1, -99.7, -89.5, -57.9, -90.2, -84.7 (2×), -87.8, -99.3, -98.4, -55.2, -98.9 (2×), -97.1 (2×), -92.9, -87.4, -97.8 (2×), -96.9, -75.3, -94.2, -89.1, -90.9, -99.4, -82.9, -98.8, -86.6, -60.1, -21, -96.1, -79.9, -96.7, -91.4, -74.8%”; in experiment [1] (runs of 1993) it was “active: -61.3, -53.8, 6.03, -94.5, -79.5, -91.6, -66.9, -66.7 (2×), -96.9, -100 (6×), -84.6, -89, -90.8, -78.3, -87.7, -83.1, -99, -93.4, -87, -78.7, -23.4, -85.9, -99.6, -71.2, -82.9, -50.6, -55.6, -81.2, -57.8, -82, -78, -93, -66.4, -98.4, -68.6, -97.9, -94.4, -77.6, -96.5, -96.3, -93.2% and inactive: 15.1%”; in experiment [1] (runs of 1994) it was “active: -70.6, -99.5, -94.6, -99.6, -95.5, -100 (4×), -77.9, -98.8, -83.4, -90.3, -96, -31.1, -29.1, -89.3, -63.7, -88.7, -93.7, -87, -88.2, -43.4, -89.8, -92.6 (2×), -99, -82.8, -71, -70.2, -28% and inactive: 94.7%”; in experiment [1] (runs of 1995), “active: -63, -100 (8×), -64.2, -71.3, -73.6, -97.9, -49.2, -92.5, -98.8, -71.6, -86.4, -98.1, -94.1 (2×), -64.4, -97.1, -98.7, -77.7, -92.6, -87.3, -57.8, -98.3, -47.6, -97.2 (2×), -27.4, -62.6, -58.3, -79.3%”; in experiment [1] (runs of 1996) it was “active: -20.6, -35.6, -98.5, -94, -69.2, -99 (2×), -87.7, -94.9, -80.6, -99.4 (2×), -97.5, -69.4, -30.4, -98.9, -100 (4×), -66.8, -93.4, -94.5, -60.9, -30.9, -99.2, -63.8, -66.4, -77.9, -75.2, -63.4, -65.9, -34.5, -70.5, -26.8, -55.5, -89.8, -82.9, -83.5, -93.8, -96.8, -56, -86, -71.4, -98.2, -86.5, -96, -97.7, -62.4, -95.4, -86.4, -50, -64.4, -28.3, -49.2% and inactive: 96.3%, 129%”; in experiment [1] (runs of 1997) it was “active: -91.1, 7.18, -65.3, -93.1, -100 (4×), -97.4, -53.8, -99, -98, -87.4, -98.2, -88.5, -95.8, -77.8, -98.8, -44.9, -93.4, -85.6 (2×), -98.9, -92.2, -47.8, -94.6, -89.7, -88.1 (2×), -90, -98.4, -81.3, -90.3, -79.8, -87.5, -91.4, -75.9, -34.3, -86.7, -86.9, 5.64, -97.2, -83.8, -88.9, -11.5, -94.7%”. The growth result is “active: -96.4, -87.3, -95.4, -100 (5×), -89.7 (2×), -7.96, -94.7, -86.8, -92.9, -74.3, -91.3, -95.3, -96.3, -87.5, -91.1, -76.8, -79.2, -78.8, -94.3, -82, -92%” in experiment [1] (runs of 1998); “active: -85.8, -94.7, -45.6, -87.9, -98.4, -100 (5×), -88.3, -68.4, -96.3, -59.2, 3.54, -70.2, -68, -68.6%” in experiment [1] (runs of 1999); “inactive: 12.6% and active: -100%, -34.7%, -85.2%” in experiment [1] (runs of 2000); “inactive: 65.6%, 78.4%” in experiment [2] (runs of 2006); “inactive: 79.2, 98.3, 76.2, 84.1, 87.5, 83.5 (2×), 86.6, 84.5, 90.5, 93.7, 95.8, 92.9, 96.6, 110, 90.1, 82.6, 92, 81.4, 87, 77.3, 87.2, 85.1, 85.7, 88.2 (2×), 77.2, 88.5 (2×), 89.8 (2×), 90.6, 94.6, 91.2 (2×), 86, 89.3, 90.4, 88.4 (2×), 81.3, 82.9, 87.7% and active: 8.2%” in experiment [2] (runs of 2007); “inactive: 91.2, 94.8, 92.1 (2×), 82.6, 83.9 (3×), 87.3, 87.9, 80.7, 82.1, 87.6 (3×), 89.6, 92.3 (2×), 89.4, 85.7 (2×), 90.6, 82.8, 86.4, 86.8, 84.8 (2×), 83, 82.9 (2×), 93.4, 85.2, 104, 84.9, 83.3, 69.7, 86.3, 90.2, 84.6, 96.1, 92, 96.3, 95, 86, 95.6, 83.5, 77, 95.2, 73, 82.7, 88.5%” in experiment [2] (runs of 2008). The growth entry in experiment [2] (runs of 2009) is “inactive: 82.2 (2×), 84.8, 91 (2×), 80.7, 81.3, 87.5, 86.8 (2×), 88.2, 85.3, 82.9, 84.5 (2×), 91.1, 83.3 (2×), 88, 85.5, 93.6, 86.9, 85.9, 86.3, 93.4, 86.7, 84, 87.8, 87, 78, 84.4, 79.8, 81.9, 95.6, 85.6, 75.7, 81.2, 87.7, 82.7, 76.4, 91.3, 86, 81.4, 84.9, 86.5, 86.6 (2×), 94.1, 109, 81.6, 83.4, 98.9, 95, 90.9, 77.2 (2×), 80.6, 80, 76.9, 92.2, 85.1, 78.4, 89.2, 80.8, 85.7, 87.3, 83.7, 83.6%”; in experiment [2] (runs of 2010), “inactive: 88.3, 84.6, 84.3, 88, 84.9, 90.4, 87.9, 83.5 (3×), 84.4, 87, 82.7, 81.4, 76.1, 80 (2×), 89.1, 90.7, 86.6, 85.7, 81.8 (2×), 91.4, 84.5, 92.7, 78.9, 81.1, 77.1, 82.8, 63.7, 80.6, 69.4, 76.9, 80.7, 79, 87.6, 88.5, 83, 80.8, 81.9, 82.6, 80.4, 85.5, 84.8, 82.3, 79.7, 76, 85.6, 90.9, 96.2%”; in experiment [2] (runs of 2011), “inactive: 86, 83, 83.4, 81.8, 85.5, 81.9 (2×), 79.1, 90.9, 81, 86.7, 87.1, 84 (2×), 88.5, 92.5, 94.6 (2×), 92.3, 90.1, 95.9, 97, 91.1 (2×), 86.3 (2×), 87.2 (3×), 94.3, 93.1, 85.9 (2×), 82.8, 85.3 (2×), 78.7, 80.1, 88.4, 91.6, 90.2, 87.6 (2×), 86.2 (2×), 89, 85.1, 80.7, 86.6, 89.3, 90, 87.8, 88.3, 83.1, 86.5, 85.6, 80.2%”.
